Among all 310,000 compounds or so, about 18,000 (5.8%) were called active. This list was built around the results that the source calls inconclusive (neither active nor inactive); the mix of calls is not that of the screen. The call rests on the fitted dose curve; in most records, active means well fitted inhibition curve with a large enough effect; inconclusive means small, poorly fitted or top-dose-only effect, or another doubt; inactive means no such curve, though single readings can be large or run the other way. No potency is given beside an inconclusive call; the fits are too rough.
Assay: Primary qHTS for delayed death inhibitors of the malarial parasite plastid, 48 hour incubation
Details: P. falciparum luciferase growth in erythrocytes; series mostly up to 28.7 µM
Outline: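 In quantitative HTS format, infected erythrocytes bearing luciferase-reporter parasites were treated for a single generation at 37 C. Luminescence after adding detection reagent served as the growth measure.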
Potency means the concentration at half of the fitted maximal effect; tags describe the fitted curve by direction and shape.

| Compound | Potency |
| --- | --- |
| COC(=O)C(Cc1ccc(O)cc1)NC(=O)CCc1nc2ccccc2s1 (stereo not drawn) | inactive |
| CC(=O)NCCc1nc2ccccc2n1CCOc1ccc(C)cc1 | inconclusive [inhibitor, partial curve] |
| COC(=O)c1ccc(NC(=O)C(=O)N2CCN(C(=S)Nc3ccc(OC)cc3)CC2)cc1 | inconclusive [inhibitor, partial curve, poor fit] |
| Cc1cccc(N(Cc2ccccc2)C(=O)CN2C(=O)NC3(CCCC3)C2=O)c1 | inconclusive [inhibitor, single point] |
| CCC(C)NC(=O)C1(NC(=O)Nc2ccccc2)CCCCC1 (stereo not drawn) | inactive |
| Cc1ccc(C2=CCNCC2)cc1 | inconclusive [inhibitor, partial curve, poor fit] |
| CCN(CC)CCNC(=O)c1ccc(NC(=O)C2CCN(c3ncnc4sc(C)c(C)c34)CC2)cc1 | inconclusive [inhibitor, partial curve, poor fit] |
| COc1ccc(Cl)cc1NC(=O)CSc1nnc(CNC(=O)c2ccco2)o1 | inactive |
| O=C(c1ccccc1F)N1CCN(C(=O)C(c2ccccc2)c2ccccc2)CC1 | inactive |
| NNC(=O)c1n[nH]c2c1CC(C1CCCCC1)CC2 (stereo not drawn) | inconclusive [inhibitor, single point] |
| Cc1ccc(CN2CCNC(=O)C2CC(=O)NCc2csc(C(C)C)n2)cc1 (stereo not drawn) | inconclusive [inhibitor, partial curve, poor fit] |
| CC(=O)c1ccc(N2CCN(C(=O)c3cc(-c4ccncc4)nc4ccc(Br)cc34)CC2)cc1 | active: 13.1 µM |
| CC(NC(=O)CSc1nc2c(c(C(F)(F)F)n1)CCc1ccccc1-2)c1ccccc1 (stereo not drawn) | active: 7.38 µM |
| CCn1c(=O)cc(OCC(=O)NCCCN2CCCC2=O)c2ccccc21 | inconclusive [inhibitor, single point] |
| Cc1cc(OCC(=O)NC(C)C)cc(C)c1Cl | inconclusive [inhibitor, single point] |
| CCc1c(C)sc(NC(=O)c2ccc(Br)o2)c1C(=O)OC | inconclusive [inhibitor, single point] |
| CCCC(C)NC(=O)CSc1nnc(-c2c[nH]c3ccccc23)o1 (stereo not drawn) | inactive |
| Cc1cccc(CCN2CCN=C2N(C)C)c1 | inconclusive [inhibitor, single point] |
| COc1ccc(-n2nc3c(c2NC(=O)c2ccc4c(c2)OCO4)CS(=O)(=O)C3)cc1 | inconclusive [inhibitor, single point] |
| CN1CCN(C(=O)N2c3ccccc3C=Cc3ccccc32)CC1 | inactive |
| Cc1ccc(C)c(OCC(=O)NNC(=O)CSC(=S)N2CCCC2)c1 | inactive |
| CC1(C)C(=O)NCCN1C(=O)CC1C(=O)NCCN1Cc1cccc(C(F)(F)F)c1 (stereo not drawn) | inactive |
| Cc1cccnc1NC(=O)CSc1ncnc2sc(C)c(C)c12 | inconclusive [inhibitor, partial curve, poor fit] |
| COc1ccc(N2C(=O)C(Cl)=C(Nc3ccccc3O)C2=O)cc1 | inactive |
| O=C(Nc1ccc(S(=O)(=O)Nc2nccs2)cc1)c1cc(-c2ccncc2)nc2ccccc12 | inconclusive [inhibitor, single point] |

| Compound | Potency |
| --- | --- |
| COc1ccc(CCN2CN(S(=O)(=O)c3ccccc3)c3nc4ccccc4nc32)cc1OC | inconclusive [inhibitor, partial curve, poor fit] |
| CCc1ccc([C@@H]2CC=C(C(=O)O)[C@H](c3ccccc3)N2S(=O)(=O)c2ccc(C)cc2)cc1 | inconclusive [inhibitor, single point] |
| OCCNC(=S)Nc1ccc(Cl)c(Cl)c1 | inactive |
| Cc1ccc(Cl)cc1NC(=O)c1cc2ccccc2cc1O | active: 0.928 µM |
| N#Cc1c(Cl)cccc1N1CCCC1 | inactive |
| O=C(Nc1ccccc1)c1sc(Cl)nc1-c1ccccc1 | inconclusive [inhibitor, partial curve, poor fit] |
| COc1ccc(NC(=O)CCS(=O)(=O)c2ccccc2)c(OC)c1 | inactive |
| CS(=O)(=O)c1nsc2nc(=O)c(/C=C3\C=Nc4ccccc43)c(N)n12 | inconclusive [inhibitor, single point] |
| CCOc1ccc(NS(=O)(=O)c2ccc(NS(C)(=O)=O)cc2)cc1 | inconclusive [inhibitor, single point] |
| O=c1[nH]c(=O)n(Cc2ccco2)c2c1C(C(F)(F)F)(C(F)(F)F)N=C(c1ccco1)N2 | inconclusive [inhibitor, partial curve, poor fit] |
| O=[N+]([O-])c1ccccc1CCl | inactive |
| CSc1ncc(CN2CCCC(C(=O)c3ccccc3SC)C2)cn1 (stereo not drawn) | inactive |
| COc1ccc(N=C2NC(=O)/C(=C/C=C/c3ccccc3)S2)cc1 | active: 7.38 µM |
| COc1cccc(NC(=O)COC(=O)c2ccco2)c1 | inactive |
| CCCNC(=O)c1onc(CSc2ccc(F)cc2)c1C(=O)NCCOC | inactive |
| O=C(Nc1cccc(-c2nc3ccccc3s2)c1)c1cc(-n2cnnc2)ccc1Cl | inactive |
| COc1cc(/C=N/NC(=O)c2ccc(COc3cc(C)ccc3C(C)C)cc2)cc(OC)c1O | inconclusive [inhibitor, single point] |
| CCOC(=O)C1(CC2CC2)CCN(Cc2cn(C)c3ccccc23)CC1 | inconclusive [inhibitor, single point] |
| CCN(c1ccccc1)S(=O)(=O)c1ccc(OC)c(NC(=O)Cc2ccc(OC)c(OC)c2)c1 | inconclusive [inhibitor, single point] |
| Cc1cc(=O)n2c3ccccc3n(CC(O)CN3CCN(Cc4ccccc4)CC3)c2c1C#N (stereo not drawn) | inconclusive [inhibitor, full curve] |
| CCOc1ccc(-n2c(SCC(=O)Nc3nccs3)nc3c(c2=O)SCC3)cc1 | inactive |
| CC(C)c1ccc(S(=O)(=O)N2CCC(C(=O)NCC3(N(C)C)CCCCC3)CC2)cc1 | inconclusive [inhibitor, partial curve, poor fit] |
| COc1ccc(C(=O)Nc2nnc(Cc3ccccc3)s2)c(OC)c1 | inconclusive [inhibitor, partial curve] |
| Cc1ncc([N+](=O)[O-])n1CCOC(N)=O | inactive |
| COc1cc(C(=O)Nc2cccc(-c3nnc(-c4ccco4)o3)c2)ccc1OC(C)=O | inconclusive [inhibitor, partial curve] |

| Compound | Potency |
| --- | --- |
| COc1ccc(C2C(=O)N(C3CCCCC3)CC(=O)N2Cc2ccco2)cc1 (stereo not drawn) | inactive |
| O=C(NCc1cccnc1)c1cccnc1Sc1ccc(Cl)cc1 | inconclusive [inhibitor, single point] |
| COc1ccccc1/C=C/C(=O)Nc1ccc(S(=O)(=O)Nc2cc(C)on2)cc1 | inactive |
| CCOC(=O)c1sc(NC(=O)CSc2nnnn2-c2ccc(C)c(C)c2)nc1C | inactive |
| CC(C)(C)c1ccc(S(=O)(=O)C(C)(C)C)cc1 | inconclusive [inhibitor, partial curve, poor fit] |
| O=C(NCc1cccc(Cl)c1)c1cccc(S(=O)(=O)N2CCCC2)c1 | inconclusive [inhibitor, partial curve, poor fit] |
| Cc1onc(C(N)=O)c1C(=O)Nc1ncc(C(F)(F)F)cc1Cl | inactive |
| Cc1ccc(-c2nn(Cc3ccccc3)cc2C(=O)O)cc1 | inactive |
| O=c1c2ccccc2nc(-c2ccc(Cl)cc2Cl)n1CCCn1ccnc1 | inconclusive [inhibitor, partial curve, poor fit] |
| O=C(c1cccc(F)c1)N1CCCC(C(=O)N2CCCCC2)C1 (stereo not drawn) | inactive |
| CC(C)C(=O)Nc1cccc(C(=O)Nc2ccc(S(=O)(=O)N3CCOCC3)cc2)c1 | inactive |
| CCOCCCn1cnc2c(c1=O)c1nc3ccccc3nc1n2-c1ccc(C)cc1 | inconclusive [inhibitor, partial curve, poor fit] |
| CCCCc1ccc(NC(=S)NCc2ccc(OC)cc2)cc1 | inactive |
| Cc1ccc(C)c(Cn2nnc3c(=O)[nH]c(C4CCCN(C(=O)CC(C)C)C4)nc32)c1 (stereo not drawn) | inconclusive [inhibitor, partial curve] |
| Cc1cccc(N2CCN(S(=O)(=O)c3ccc(-c4ccc(=O)[nH]n4)o3)CC2)c1C | inconclusive [inhibitor, full curve, poor fit] |
| OCC(O)C1OC(Nc2ccc(Cl)cc2)C(O)C1O (stereo not drawn) | inactive |
| Cc1cc(C)c2c(c1)c1nnc(SCCN3CCCCC3)nc1n2C | inconclusive [inhibitor, single point] |
| Cc1ccc(N(CC(=O)N2CCN(c3ccc(F)cc3)CC2)S(=O)(=O)c2c(C)noc2C)cc1 | inconclusive [inhibitor, partial curve] |
| CCCn1c(N)c(N(CCOC)C(=O)CSCC(=O)Nc2ccc(C)cc2)c(=O)[nH]c1=O | inactive |
| CCOC(=O)[C@H]1[C@H]2COc3ccccc3[C@@H]2N2C(=O)c3ccc(C)cc3NC(=O)[C@@]12C | inconclusive [inhibitor, single point] |
| Cc1ccc(NC2=C(Cl)C(=O)c3ccccc3C2=O)cc1 | inactive |
| COc1ccc(NC(=O)CCC(=O)N/N=C/c2ccc([N+](=O)[O-])s2)cc1 | active: 7.38 µM |
| O=C(Cc1ccc(F)cc1)N1CCN(c2ccc(F)cc2)CC1 | inconclusive [inhibitor, single point] |
